# The campaign covered roughly 270,000 compounds. About 620 (0.23%) were called active. The shares of active, inactive and inconclusive entries below differ from those in the screen. Calls follow the shape of the dose curve; as a rule, active = well fitted inhibition curve with a large enough effect in the polarisation, with a control signal flat (not every such curve was filed as active); inconclusive = small, poorly fitted or top-dose-only effect, or effect the other way, or a change in a side signal; inactive = no such curve, though single readings can be large or run the other way; the % refers to the polarisation. Potencies beside an inconclusive call are fits to weak or partial responses and may not hold up. “Side channel” marks fits to a control or component signal instead of the main read-out.
# Molecular target: Menin (Homo sapiens) (UniProt O00255)
# Experiment: qHTS Assay for Inhibitors Targeting the Menin-MLL Interaction in MLL Related Leukemias: Competition With Texas Red Labeled MLL-derived Mutant Peptide
# Conditions: fluorescence polarization; series mostly up to 61.6 µM
# Potency is read from the fitted curve at half-maximal effect; tags tell the direction and shape of the fitted curve or compound fluorescence and quenching.
# UniProt O00255, sequence (O00255 whole entry, looked up): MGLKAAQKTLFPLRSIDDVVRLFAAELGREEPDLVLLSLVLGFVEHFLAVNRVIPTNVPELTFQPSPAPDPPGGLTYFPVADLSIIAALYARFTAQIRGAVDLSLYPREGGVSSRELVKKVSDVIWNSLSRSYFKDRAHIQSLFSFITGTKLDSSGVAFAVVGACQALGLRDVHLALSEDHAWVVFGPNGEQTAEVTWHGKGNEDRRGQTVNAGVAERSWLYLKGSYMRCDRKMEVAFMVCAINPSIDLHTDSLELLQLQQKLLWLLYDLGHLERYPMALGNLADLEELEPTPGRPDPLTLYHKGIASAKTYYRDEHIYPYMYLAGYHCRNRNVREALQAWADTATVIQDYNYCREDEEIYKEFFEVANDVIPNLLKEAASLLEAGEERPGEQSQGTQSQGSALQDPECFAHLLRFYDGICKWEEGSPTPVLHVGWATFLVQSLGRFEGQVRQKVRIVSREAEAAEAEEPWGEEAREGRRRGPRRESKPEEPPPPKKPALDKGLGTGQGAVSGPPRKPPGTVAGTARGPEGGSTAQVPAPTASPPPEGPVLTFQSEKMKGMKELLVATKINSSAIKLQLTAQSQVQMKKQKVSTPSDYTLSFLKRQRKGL
row,Compound,Potency
1,O=C(c1ccccc1)N1CCN(c2n[nH]c(=O)[nH]c2=O)CC1,"inconclusive: 2.51 µM [inhibitor, full curve]"
2,Cc1cnc(NC(=O)CN2CCN(c3ccccn3)CC2)s1,"inconclusive: 39.8 µM [quencher, side channel, single point]"
3,O=C(Nc1ccccc1O)c1nc(Cl)ccc1Cl,"inconclusive: 28.2 µM [quencher, side channel, partial curve]"
4,Cc1ccc(NC(=O)CSc2nnc(NC(=O)c3ccc(S(=O)(=O)N4CCOCC4)cc3)s2)cc1,"inconclusive: 39.8 µM [inhibitor, single point]"
5,CCOc1ccc(C(=O)N2CCN(c3cccc(C)c3C)CC2)cc1,"inconclusive: 20 µM [inhibitor, single point]"
6,N#CCCn1cc(/C=C2\NC(=S)N(c3ccccc3)C2=O)c(-c2ccc(-c3ccccc3)cc2)n1,"inconclusive: 3.16 µM [quencher, single point]"
7,COCCn1c(CN2CCc3ccccc3C2)nc2c1c(=O)n(C)c(=O)n2C,"inconclusive: 25.1 µM [inhibitor, partial curve]"
8,NS(=O)(=O)c1ccc(CCNC(=O)CNCCc2ccc(C(F)(F)F)cc2)cc1,"inconclusive: 11.2 µM [inhibitor, partial curve]"
9,O=C(CN1CCCCC1)N1CCCc2c1c(=O)oc1ccc(OCc3ccccc3)cc21,"inconclusive: 22.4 µM [inhibitor, partial curve]"
10,O=C(NC(=S)Nc1cccc(NC(=O)c2ccc(Cl)cc2Cl)c1)c1cccs1,"inconclusive: 39.8 µM [inhibitor, single point]"
11,COc1ccc2nc(COC(=O)c3ccco3)c(C(C)=O)[n+]([O-])c2c1,inactive
12,CN1CCc2c(sc(NC(=O)c3cc4cc([N+](=O)[O-])ccc4s3)c2C(N)=O)C1,"inconclusive: 14.1 µM [quencher, side channel, partial curve]"
13,Cc1ccc(/C=C2\SC(N3CCN(C(c4ccccc4)c4ccccc4)CC3)=NC2=O)o1,"inconclusive: 22.4 µM [quencher, side channel, partial curve]"
14,O=C(Nc1cnc2sccn2c1=O)c1ccccc1Cl,"inconclusive: 3.16 µM [inhibitor, partial curve]"
15,CC1(C)CC(NC(=S)NC2CC2)CC(C)(C)N1,inactive
16,Cn1cccc1CC(=O)N/N=C/c1cc([N+](=O)[O-])ccc1Cl,"inconclusive: 25.1 µM [quencher, side channel, single point]"
17,N#CC1=C(SCC(=O)c2cc3ccccc3oc2=O)NC(=O)C(C#N)C12CCCC2 (configuration not stated),"inconclusive: 7.94 µM [quencher, side channel, partial curve]"
18,COc1ccc(N2CCN(C(=O)c3ccc(C)c(Cl)c3)CC2)cc1,"inconclusive: 8.91 µM [fluorescent, side channel, full curve, poor fit]"
19,COc1ccc(-c2nn(-c3ccccc3)cc2C(=O)N/N=C/c2ccc([N+](=O)[O-])o2)cc1,"inconclusive: 2.51 µM [quencher, side channel, full curve]"

row,Compound,Potency
1,CN(C)CC1CCn2c(c(C3=C(c4cn(C)c5ccccc45)C(=O)NC3=O)c3ccccc32)C1 (configuration not stated),"inconclusive: 28.2 µM [inhibitor, single point]"
2,CCCCCc1ccc(OCCCC[n+]2ccccc2)c(CCCCC)c1,"inconclusive: 8.91 µM [inhibitor, partial curve]"
3,COc1cccc(-c2ccc3ncnc(N4CCOCC4)c3c2)c1,"inconclusive: 5.01 µM [inhibitor, partial curve]"
4,Cc1cccc(C(=O)NCCCn2ccnc2)c1C,"inconclusive: 3.55 µM [inhibitor, full curve, poor fit]"
5,COc1cc(C(Nc2ccccn2)c2ccc3ccc(C)nc3c2O)cc(OC)c1O (configuration not stated),inactive
6,COCCn1c(=NC(=O)c2ccc(S(=O)(=O)N3CCOCC3)cc2)sc2cc(S(N)(=O)=O)ccc21,"inconclusive: 3.16 µM [quencher, side channel, partial curve]"
7,O=c1cnnc(N/N=C/c2c[nH]c3ccccc23)[nH]1,"inconclusive: 22.4 µM [quencher, side channel, single point]"
8,O=C(CC1Nc2cccc3cccc(c23)NC1=O)Nc1ccccc1 (configuration not stated),"inconclusive: 2.82 µM [quencher, side channel, full curve]"
9,Cc1ccc(C(=O)c2cn[nH]c2-c2cc(Cl)ccc2O)cc1,"inconclusive: 25.1 µM [quencher, side channel, partial curve]"
10,S=c1nn[nH]n1C12CC3CC(CC(C3)C1)C2,"inconclusive: 22.4 µM [quencher, side channel, single point]"
11,COc1ccc(CN2CCN(Cc3ccc4ccccc4c3)CC2)cc1OC,"inconclusive: 39.8 µM [fluorescent, side channel, single point]"
12,O=C(NCC(c1cccs1)N1CCOCC1)c1ccccc1NS(=O)(=O)c1cc([N+](=O)[O-])ccc1Cl (configuration not stated),"inconclusive: 17.8 µM [quencher, side channel, partial curve]"
13,COc1cc(CNCc2ccncc2)cc(Br)c1OCc1ccccc1F,"inconclusive: 28.2 µM [fluorescent, side channel, single point]"
14,CC(C)CC(NS(=O)(=O)c1ccc2c(c1)oc(=O)n2C)C(=O)NC1CCCc2ccccc21 (configuration not stated),"inconclusive: 31.6 µM [fluorescent, side channel, single point]"
15,CCc1ccc(N2C(=O)CN(Cc3cccs3)C2=S)cc1,"inconclusive: 39.8 µM [inhibitor, partial curve, poor fit]"
16,N[C@H](C(=O)O)c1ccc(C(=O)O)cc1,inactive
17,COc1ccc(-c2n[nH]c(C)c2-c2cnn(-c3ccccc3)c2)c(O)c1,"inconclusive: 35.5 µM [quencher, side channel, single point]"
18,CS(=O)(=O)c1ccc(C(=O)OCC(=O)NC(=O)C2CCCCC2)cc1[N+](=O)[O-],"inconclusive: 17.8 µM [quencher, side channel, single point]"

# Reference: PubChem BioAssay AID1768 (National Center for Advancing Translational Sciences (NCATS), 2009)
